Test results taken from paper PMC3199943, “Screening the MayBridge Rule of 3 Fragment Library for Compounds That Interact with the Trypanosoma brucei myo-Inositol-3-Phosphate Synthase and/or Show Trypanocidal Activity” (Molecular Biology International, 2011).
Structures can show the parent of a compound that is named as a salt. Where two headings read alike, the source gives them in different places.

What was measured:
[1] = system: cultured bloodstream T. brucei (strain 427); conditions: Supplementary Table 1; compound 0.5 mM; percentage of controls in the absence of compound; mean ± SD (n=3) or SE (n=2)
[2] = system: cultured bloodstream T. brucei (strain 427); test: microbe, parasite or virus in culture; conditions: Trypanosoma brucei
[3] = read-out: T. brucei Alamar Blue

Row | Molecule | T. brucei Alamar Blue [1] | further results
1 | ON=C1CCCc2ccccc21 [compound 279, 1,2,3,4‐tetrahydronaphthalen‐1‐one oxime] | 18.8 ± 5.8 percentage of controls | 
2 | CC(=O)c1cc2cc(Cl)ccc2o1 [compound 589, 1‐(5‐chlorobenzo[b]furan‐2‐yl)ethan‐1‐one] | 81.4 ± 11.7 percentage of controls | 
3 | OCc1ccc2c(c1)OCCCO2 [compound 453, 3,4‐dihydro‐2H‐1,5‐benzodioxepin‐7‐ylmethanol] | 111.4 ± 1.5 percentage of controls | 
4 | CC(=O)Nc1cc(C)ccc1O [compound 303, N1‐(2‐hydroxy‐5‐methylphenyl)acetamide] | 82.9 ± 18.1 percentage of controls | 
5 | OCc1cccc(Cn2ccnc2)c1 [compound 527, [3‐(1H‐imidazol‐1‐ylmethyl)phenyl]methanol] | 78.7 ± 10.9 percentage of controls | 
6 | Cc1cc(C(F)(F)F)c(C#N)cn1 [compound 498, 6‐methyl‐4‐(trifluoromethyl)nicotinonitrile] | 102.8 ± 15.5 percentage of controls | 
7 | N#CCOc1ccc(C(F)(F)F)cn1 [compound 634, 2‐{[5‐(trifluoromethyl)‐2‐pyridyl]oxy}acetonitrile] | 80.4 ± 15 percentage of controls | 
8 | COc1cc2c(cc1OC)C(C)=NCC2 [compound 664, 6,7‐dimethoxy‐1‐methyl‐3,4‐dihydroisoquinoline] | 48.8 ± 12 percentage of controls | 
9 | O=C(O)C1CC2CC1CCC2O (stereo not drawn) [compound 345, 2‐hydroxybicyclo[3.2.1]octane‐6‐carboxylic acid] | 81.9 ± 2.6 percentage of controls | 
10 | Cn1nc(-c2cccs2)cc1CO [compound 587, (1‐methyl‐3‐thien‐2‐yl‐1H‐pyrazol‐5‐yl)methanol] | 61.3 ± 11.9 percentage of controls | 
11 | CNCc1nn(C)c2ccccc12 [compound 401, N‐methyl‐N‐[(1‐methyl‐1H‐indazol‐3‐yl)methyl]amine] | 59.8 ± 8.8 percentage of controls | 
12 | CC(=O)c1cc(C)ccc1O [compound 184, 1‐(2‐hydroxy‐5‐methylphenyl)ethan‐1‐one] | 96.1 ± 4.8 percentage of controls | 
13 | NC(=S)c1cccc2c1OCCO2 [compound 592, 2,3‐dihydro‐1,4‐benzodioxine‐5‐carbothioamide] | 67.7 ± 17 percentage of controls | 
14 | NCc1ccc(CN2CCCCC2)cc1 [compound 658, [4‐(piperidinomethyl)phenyl]methylamine] | 46.6 ± 16.8 percentage of controls | 
15 | Nc1ccc2c(c1)OCCCO2 [compound 308, 3,4‐dihydro‐2H‐1,5‐benzodioxepin‐7‐amine] | 110.4 ± 16.6 percentage of controls | 
16 | CC12CCC(CC1=NO)C2(C)C (stereo not drawn) [compound 332, 1,7,7‐trimethylbicyclo[2.2.1]heptan‐2‐one oxime] | 106.5 ± 18.9 percentage of controls | 
17 | NCc1cccc(CN2CCCC2)c1 [compound 550, [3‐(1‐pyrrolidinylmethyl)phenyl]methanamine] | 51.6 ± 9 percentage of controls | 
18 | CC(=O)c1ccc2c(c1)OCCO2 [compound 430, 1‐(2,3‐dihydro‐1,4‐benzodioxin‐6‐yl)ethan‐1‐one] | 90.9 ± 7.7 percentage of controls | 
19 | (Piperidino‐3‐pyridinyl)methanol [compound 569] | 31.1 ± 5.4 percentage of controls | 

Row | Molecule | T. brucei Alamar Blue [1] | further results
20 | NCC1COc2ccccc2O1 (stereo not drawn) [compound 309, 2,3‐dihydro‐1,4‐benzodioxin‐2‐ylmethylamine] | 24.7 ± 6.9 percentage of controls | 
21 | FC(F)(F)C1=NCCNC=C1 [compound 295, 5‐(trifluoromethyl)‐2,3‐dihydro‐1H‐1,4‐diazepine] | 94.6 ± 14.4 percentage of controls | 
22 | OCC1CNc2ccccc2O1 (stereo not drawn) [compound 307, 3,4‐dihydro‐2H‐1,4‐benzoxazin‐2‐ylmethanol] | 76.9 ± 15.1 percentage of controls | 
23 | Cn1ncc(CO)c1-c1ccccc1 [compound 530, (1‐methyl‐5‐phenyl‐1H‐pyrazol‐4‐yl)methanol] | 66.6 ± 15.6 percentage of controls | 
24 | O=C(O)c1cccc2c1OCC2 [compound 297, 2,3‐dihydrobenzo[b]furan‐7‐carboxylic acid] | 101.8 ± 16 percentage of controls | 
25 | Cc1c(CO)cnn1-c1ccccc1 [compound 523, (5‐methyl‐1‐phenyl‐1H‐pyrazol‐4‐yl)methanol] | 64.9 ± 10.9 percentage of controls | 
26 | Cc1nn(C)c2sc(CO)cc12 [compound 467, (1,3‐dimethyl‐1H‐thieno[2,3‐c]pyrazol‐5‐yl)methanol] | 65.6 ± 13.2 percentage of controls | 
27 | CC1CCN(CC(C)(C)N)CC1 [compound 349, 2‐methyl‐1‐(4‐methylpiperidino)‐2‐propanamine] | 103.1 ± 7.3 percentage of controls | 
28 | Nc1ccc2oc3c(c2c1)CCCC3 [compound 516, 6,7,8,9‐tetrahydrodibenzo[b,d]furan‐2‐amine] | 36.8 ± 1.1 percentage of controls | 
29 | COC(=O)c1cc2ccsc2[nH]1 [compound 463, methyl 6H‐thieno[2,3‐b]pyrrole‐5‐carboxylate] | 85.3 ± 19.7 percentage of controls | 
30 | CC(C)(N)CN1CCCC1 [compound 142, 2‐methyl‐1‐(1‐pyrrolidinyl)‐2‐propanamine] | 70.6 ± 6.5 percentage of controls | 
31 | Cc1cc(CN)n(C)n1 [compound 73, (1,3‐dimethyl‐1H‐pyrazol‐5‐yl)methylamine] | 80 ± 15.5 percentage of controls | 
32 | CNCc1ccnc(N2CCCCC2)c1 [compound 671, N‐methyl‐N‐[(2‐piperidin‐1‐ylpyridin‐4‐yl)methyl]amine] | 27.3 ± 6.8 percentage of controls | 
33 | OCC1COc2ccccc2O1 (stereo not drawn) [compound 319, 2,3‐dihydro‐1,4‐benzodioxin‐2‐ylmethanol] | 77.2 ± 5.4 percentage of controls | 
34 | N#CCCNCC1CCCO1 (stereo not drawn) [compound 224, 3‐[(tetrahydrofuran‐2‐ylmethyl)amino]propanenitrile] | 103.3 ± 15.4 percentage of controls | 
35 | Cc1nn(C)c(C)c1CN [compound 128, (1,3,5‐trimethyl‐1H‐pyrazol‐4‐yl)methylamine] | 87 ± 9.9 percentage of controls | 
36 | Cl.c1ccc2c(c1)CCNC2 [compound 343, 1,2,3,4‐tetrahydroisoquinoline hydrochloride] | 67 ± 10.6 percentage of controls | 
37 | CC(=O)Nc1ccc2c(c1)CCC2=O [compound 535, N1‐(1‐oxo‐2,3‐dihydro‐1H‐inden‐5‐yl)acetamide] | 97.5 ± 6.6 percentage of controls | 
38 | Cn1nc(CO)cc1-c1ccccc1 [compound 525, (1‐methyl‐5‐phenyl‐1H‐pyrazol‐3‐yl)methanol] | 58 ± 13.5 percentage of controls | 

Row | Molecule | T. brucei Alamar Blue [1] | further results
39 | Nc1ccc2c(c1)CCCC2=O [compound 280, 6‐amino‐1,2,3,4‐tetrahydronaphthalen‐1‐one] | 42.8 ± 6.8 percentage of controls | 
40 | CN1CCc2c(sc(N)c2C#N)C1 [compound 581, 2‐amino‐6‐methyl‐4,5,6,7‐tetrahydrothieno[2,3‐c]pyridine‐3‐carbonitrile] | 42.5 ± 18.5 percentage of controls | 
41 | Cc1nc(-c2ccc(CO)cc2)cs1 [compound 667, [4‐(2‐methyl‐1,3‐thiazol‐4‐yl)phenyl]methanol] | 41.7 ± 12.6 percentage of controls | 
42 | Cn1nc(CO)cc1-c1cccs1 [compound 586, (1‐methyl‐5‐thien‐2‐yl‐1H‐pyrazol‐3‐yl)methanol] | 71.4 ± 15.6 percentage of controls | 
43 | Cc1nc(-c2ccccc2)ncc1CO [compound 623, (4‐methyl‐2‐phenyl‐5‐pyrimidinyl)methanol] | 61.8 ± 14.4 percentage of controls | 
44 | c1ccc(-c2cn3c(n2)SCC3)cc1 [compound 639, 6‐phenyl‐2,3‐dihydroimidazo[2,1‐b][1,3]thiazole] | 31.1 ± 5.8 percentage of controls | 
45 | Cc1ccc(C#N)c(=O)[nH]1 [compound 109, 6‐methyl‐2‐oxo‐1,2‐dihydropyridine‐3‐carbonitrile] | 108.6 ± 5.1 percentage of controls | 
46 | Cc1nn(-c2ccccc2)c(C)c1CO [compound 636, (3,5‐dimethyl‐1‐phenyl‐1H‐pyrazol‐4‐yl)methanol] | 70.4 ± 15.2 percentage of controls | 
47 | CCOC(=O)c1sc(Cl)nc1C [compound 672, ethyl 2‐chloro‐4‐methyl‐1,3‐thiazole‐5‐carboxylate] | 87.2 ± 12.5 percentage of controls | 
48 | Cc1ccc(C)c(C(O)C(=O)O)c1 (stereo not drawn) [compound 454, 2‐(2,5‐dimethylphenyl)‐2‐hydroxyacetic acid] | 98.7 ± 11.9 percentage of controls | 
49 | CNCc1scc2c1OCCO2 [compound 495, N‐(2,3‐dihydrothieno[3,4‐b][1,4]dioxin‐5‐ylmethyl)‐N‐methylamine] | 28.2 ± 3.2 percentage of controls | 
50 | NCc1nc2ccccc2s1 [compound 626, 1,3-benzothiazol-2-ylmethylamine hydrochloride] |  | viability at 500 µM ([2]; read-out: T. brucei Alamar Blue (% survival), compound 0.5 mM, percentage of controls): 52.9 ± 13.9%; viability at 500 µM ([2]; read-out: T. brucei Alamar Blue, Supplementary Table 1, compound 0.5 mM, percentage of controls in the absence of compound, mean ± SD (n=3) or SE (n=2)): 52.9 ± 13.9%
51 | Cn1ccc2c(C(=O)O)cccc21 [compound 399, 1‐methyl‐1H‐indole‐4‐carboxylic acid] |  | viability at 500 µM [2, 3]: 77.4 ± 9.9%
52 | Oc1ccccc1N1CCOCC1 [compound 448, 2‐morpholinophenol] |  | viability at 500 µM [2, 3]: 101 ± 18.8%
53 | Cc1ccc[nH]c1=O [compound 17, 3‐methyl‐1,2‐dihydropyridin‐2‐one] |  | viability at 500 µM [2, 3]: 93.6 ± 17.8%
54 | Oc1ccc(SC(F)(F)F)cc1 [compound 584, 4‐[(trifluoromethyl)thio]phenol] |  | viability at 500 µM [2, 3]: 94.2 ± 17.2%
55 | Nc1cccc(C(=O)c2ccccc2)c1 [compound 601, (3‐aminophenyl)(phenyl)methanone] |  | viability at 500 µM [2, 3]: 97.7 ± 12.1%
56 | COC(=O)c1cccs1 [compound 138, methyl thiophene‐2‐carboxylate] |  | viability at 500 µM [2, 3]: 111 ± 2.8%
